{"source": "the supplement of paper PMC11348887", "note": "Structures can show the parent of a compound that is named as a salt. The list shows a part of the results. Rule as the data show it: active = -2 or less and inactive = the rest. Most values come without repeats; read them as rough.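 Also: nuclei counted from DAPI counterstain by automated high-content image analysis, four fields per well at ×20 in 384-well plates, with sequential b-score then z-score normalization.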", "data": [{"system": "hPSC-derived cortical neurons (WA09)", "assay": "nuclei number (viability) z-score; higher = more surviving cells", "settings": "5 µM; treatment: days 7-14 after plating, readout day 21", "values": [{"smiles": "Cc1cc(C)nc(SCC(=O)Nc2ncc(Cc3cccc4ccccc34)s2)n1", "nuclei number (z-score)": "inactive: 0.386"}, {"smiles": "O=C(O)C(S)=Cc1c[nH]c2ccc(F)cc12", "nuclei number (z-score)": "inactive: 3.71"}, {"smiles": "O=C(/C=C/C=C/c1ccc2c(c1)OCO2)N1CCCCC1", "note": "[Piperine]", "nuclei number (z-score)": "inactive: 0.473"}, {"smiles": "O=c1c2ccccc2nc2n1CCc1c-2[nH]c2ccccc12", "note": "[Rutaecarpine]", "nuclei number (z-score)": "inactive: -0.13"}, {"smiles": "CCC(=O)OCC(=O)[C@@]1(OC(=O)CC)[C@@H](C)C[C@H]2[C@@H]3CCC4=CC(=O)C=C[C@]4(C)[C@@]3(Cl)[C@@H](O)C[C@@]21C", "note": "[Beclomethasone dipropionate]", "nuclei number (z-score)": "inactive: 2.25"}, {"smiles": "CC(C)NCC(O)c1cc(O)cc(O)c1", "note": "(stereo not drawn) [Metaproterenol Sulfate]", "nuclei number (z-score)": "inactive: 0.00371"}, {"smiles": "C[C@H]1Oc2cc(cnc2N)-c2c(nn(C)c2C#N)CN(C)C(=O)c2ccc(F)cc21", "nuclei number (z-score)": "inactive: 0.219"}, {"smiles": "C[C@@]1(c2cc(-c3cncnc3)c(F)cc2F)CCSC(N)=N1", "nuclei number (z-score)": "inactive: 0.83"}, {"smiles": "O=C1NC(=O)[C@@H](c2cn3c4c(cccc24)CCC3)[C@@H]1c1c[nH]c2ccccc12", "note": "[Tivantinib (ARQ 197)]", "nuclei number (z-score)": "inactive: -1.14"}, {"smiles": "CCc1cnn2c(NCc3ccc[n+]([O-])c3)cc(N3CCCC[C@H]3CCO)nc12", "nuclei number (z-score)": "active: -6.61"}, {"smiles": "CC(C)(C(=O)NCC(F)(F)C(F)(F)F)C(=O)N[C@@H]1C(=O)Nc2ccccc2-c2ccccc21", "nuclei number (z-score)": "inactive: -0.313"}, {"smiles": "Cc1cc(C)c(CNC(=O)c2cc(-c3ccc(N4CCN(C)CC4)nc3)cc3c2c(C)cn3C(C)C)c(=O)[nH]1", "nuclei number (z-score)": "inactive: 0.361"}, {"smiles": "Cc1ccc(-c2c(-c3nn(C)c4ncnc(N5CC[C@H](N6CCCCC6)C5)c34)cnn2C)cc1", "nuclei number (z-score)": "inactive: 0.367"}, {"smiles": "Cc1ccsc1C(=CCCN1CCC[C@@H](C(=O)O)C1)c1sccc1C", "note": "[Tiagabine]", "nuclei number (z-score)": "inactive: 0.797"}, {"smiles": "Cc1ccsc1C(=CCCN1CCC[C@@H](C(=O)O)C1)c1sccc1C", "note": "[Tiagabine hydrochloride]", "nuclei number (z-score)": "inactive: -0.134"}, {"smiles": "O=C1c2c(O)cc(O)cc2O[C@H](c2cc(O)c(O)c(O)c2)[C@H]1O", "note": "[Dihydromyricetin]", "nuclei number (z-score)": "inactive: -1.98"}, {"smiles": "O=C1OC(CN2CCOCC2)CN1/N=C/c1ccc([N+](=O)[O-])o1", "note": "(stereo not drawn) [Furaltadone HCl]", "nuclei number (z-score)": "inactive: 0.575"}, {"smiles": "O=C(CNc1ccc2ccccc2c1)N/N=C/c1cc(Br)c(O)c(Br)c1O", "nuclei number (z-score)": "inactive: 1.15"}, {"smiles": "C[C@H]1[C@H](OC(=O)CCC(=O)O)O[C@@H]2O[C@@]3(C)CC[C@H]4[C@H](C)CC[C@@H]1[C@@]24OO3", "note": "[Artesunate]", "nuclei number (z-score)": "inactive: 0.0144"}, {"smiles": "CCOc1cc(N)c(Cl)cc1C(=O)NCC1CN(Cc2ccc(F)cc2)CCO1", "note": "(stereo not drawn) [Mosapride Citrate]", "nuclei number (z-score)": "inactive: 0.672"}, {"smiles": "COC(=O)[C@H](CCSC)NC(=O)c1ccc(NC[C@@H](N)CS)cc1-c1ccccc1", "nuclei number (z-score)": "inactive: 0.372"}, {"smiles": "Cc1cccc(Nc2ccccc2C(=O)O)c1C", "note": "[Mefenamic Acid]", "nuclei number (z-score)": "inactive: -0.863"}, {"smiles": "CCC(C)n1ncn(-c2ccc(N3CCN(c4ccc(OCC5COC(Cn6cncn6)(c6ccc(Cl)cc6Cl)O5)cc4)CC3)cc2)c1=O", "note": "(stereo not drawn) [Itraconazole]", "nuclei number (z-score)": "inactive: 0.373"}, {"smiles": "C[n+]1ccccc1/C=N/O", "note": "[Pralidoxime chloride]", "nuclei number (z-score)": "inactive: 1.54"}, {"smiles": "CN(C)CCNC(=O)c1cccn2c(=O)c3cc4ccccc4cc3nc12", "nuclei number (z-score)": "active: -4.53"}, {"smiles": "CC1(C)S[C@@H]2[C@H](NC(=O)Cc3ccccc3)C(=O)N2[C@H]1C(=O)O", "note": "[Penicillin G Sodium]", "nuclei number (z-score)": "inactive: -0.221"}, {"smiles": "CCCCc1nc(Cl)c(CO)n1Cc1ccc(-c2ccccc2-c2nnn[nH]2)cc1", "note": "[Losartan Potassium (DuP 753)]", "nuclei number (z-score)": "inactive: -0.277"}, {"smiles": "O=C(Nc1cccc2cccnc12)c1ccc(N2C(=O)[C@@H]3[C@H](C2=O)[C@@H]2C=C[C@H]3C2)cc1", "note": "[IWR-1-endo]", "nuclei number (z-score)": "inactive: 0.288"}, {"smiles": "C=CCn1c(=O)c2cnc(Nc3ccc(N4CCN(C)CC4)cc3)nc2n1-c1cccc(C(C)(C)O)n1", "nuclei number (z-score)": "inactive: 0.499"}, {"smiles": "CCOc1ccc(NC(=O)CC(C)O)cc1", "note": "(stereo not drawn) [Bucetin]", "nuclei number (z-score)": "inactive: 0.588"}, {"smiles": "Clc1ccc(C(Cn2ccnc2)OCc2csc3c(Cl)cccc23)c(Cl)c1", "note": "(stereo not drawn) [Sertaconazole nitrate]", "nuclei number (z-score)": "inactive: -0.706"}, {"smiles": "CC(=O)OCC1=C(C(=O)O)N2C(=O)[C@@H](NC(=O)Cc3cccs3)[C@H]2SC1", "note": "[Cephalothin]", "nuclei number (z-score)": "inactive: -0.37"}, {"smiles": "Cc1nc2n(c(=O)c1CCN1CCC(c3noc4cc(F)ccc34)CC1)CCCC2O", "note": "(stereo not drawn) [Paliperidone]", "nuclei number (z-score)": "inactive: 0.865"}, {"smiles": "c1cn2cc(-c3ccc4cn[nH]c4c3)nc(Nc3ccc(N4CCOCC4)cc3)c2n1", "nuclei number (z-score)": "inactive: -0.139"}, {"smiles": "C[C@H](CCC(=O)NCCS(=O)(=O)O)[C@H]1CC[C@H]2[C@@H]3[C@@H](O)C[C@@H]4C[C@H](O)CC[C@]4(C)[C@H]3CC[C@]12C", "note": "[Sodium Tauroursodeoxycholate (TUDC)]", "nuclei number (z-score)": "inactive: -0.417"}, {"smiles": "O=C1CCC(N2C(=O)c3ccccc3C2=O)C(=O)N1", "note": "(stereo not drawn) [Thalidomide]", "nuclei number (z-score)": "inactive: 1.73"}, {"smiles": "NCC[C@H](O)C(=O)N[C@@H]1C[C@H](N)[C@@H](O[C@H]2O[C@H](CN)[C@@H](O)[C@H](O)[C@H]2O)[C@H](O)[C@H]1O[C@H]1O[C@H](CO)[C@@H](O)[C@H](N)[C@H]1O", "note": "[Amikacin disulfate]", "nuclei number (z-score)": "inactive: -1.15"}, {"smiles": "NCC[C@H](O)C(=O)N[C@@H]1C[C@H](N)[C@@H](O[C@H]2O[C@H](CN)[C@@H](O)[C@H](O)[C@H]2O)[C@H](O)[C@H]1O[C@H]1O[C@H](CO)[C@@H](O)[C@H](N)[C@H]1O", "note": "[Amikacin hydrate]", "nuclei number (z-score)": "inactive: 0.643"}, {"smiles": "O=C1c2cccc3c2[C@H](CCC3)CN1[C@@H]1CN2CCC1CC2", "note": "[Palonosetron HCl]", "nuclei number (z-score)": "inactive: 1.32"}, {"smiles": "COc1cc(/C=C/C(=O)CC(=O)/C=C/c2ccc(O)c(OC)c2)ccc1O", "note": "[Curcumin]", "nuclei number (z-score)": "inactive: 0.85"}, {"smiles": "Cc1cc2c(F)c(Oc3ncnn4cc(OC[C@@H](C)O)c(C)c34)ccc2[nH]1", "nuclei number (z-score)": "inactive: 0.363"}, {"smiles": "O=C(O)CSCC(=O)NC1CCSC1=O", "note": "(stereo not drawn) [Erdosteine]", "nuclei number (z-score)": "inactive: 0.0779"}, {"smiles": "CC(C)CN(C[C@@H](O)[C@H](Cc1ccccc1)NC(=O)O[C@H]1CO[C@H]2OCC[C@H]21)S(=O)(=O)c1ccc(N)cc1", "note": "[Darunavir Ethanolate]", "nuclei number (z-score)": "inactive: 3.96"}, {"smiles": "Clc1ccc(Nc2nnc(Cc3ccncc3)c3ccccc23)cc1", "note": "[Vatalanib (PTK787) 2HCl]", "nuclei number (z-score)": "inactive: -0.613"}, {"smiles": "Cn1cc(-c2ccc3nnc(Sc4ccc5ncccc5c4)n3n2)cn1", "nuclei number (z-score)": "inactive: -0.395"}, {"smiles": "O=C1NC(=O)/C(=C/c2cccc(C(F)(F)F)c2)S1", "nuclei number (z-score)": "inactive: 0.0648"}, {"smiles": "Cc1cc(O)c2c(c1)C(=O)c1cc(O)cc(O)c1C2=O", "note": "[Emodin]", "nuclei number (z-score)": "inactive: 0.0605"}, {"smiles": "O=c1[nH]cnc2[nH]ncc12", "note": "[Allopurinol Sodium]", "nuclei number (z-score)": "inactive: 0.724"}, {"smiles": "CN1CCN(C2CCN(C(=O)Nc3cc(Oc4ccc(NC(=O)C5(C(=O)Nc6ccc(F)cc6)CC5)c(F)c4)ccn3)CC2)CC1", "note": "[Golvatinib (E7050)]", "nuclei number (z-score)": "active: -5.36"}, {"smiles": "C[N+](C)(C)CCO.[Cl-]", "note": "[Choline Chloride]", "nuclei number (z-score)": "inactive: -0.285"}, {"smiles": "CN1CCC(OC(c2ccccc2)c2ccccc2)CC1", "note": "[Diphenylpyraline HCl]", "nuclei number (z-score)": "inactive: -0.107"}, {"smiles": "CCOC(=O)[C@H](CCc1ccccc1)N[C@@H](C)C(=O)N1Cc2cc(OC)c(OC)cc2C[C@H]1C(=O)O", "note": "[Moexipril HCl]", "nuclei number (z-score)": "inactive: 0.25"}, {"smiles": "Nc1nc(Nc2ccc3c(c2)CCC(N2CCCC2)CC3)nn1-c1cc2c(nn1)-c1ccccc1CCC2", "note": "(stereo not drawn)", "nuclei number (z-score)": "active: -6.55"}, {"smiles": "CCCC(=O)OCOC(=O)C1=C(C)NC(C)=C(C(=O)OC)C1c1cccc(Cl)c1Cl", "note": "(stereo not drawn) [Clevidipine Butyrate]", "nuclei number (z-score)": "inactive: 0.949"}, {"smiles": "CN(C)CCCN1c2ccccc2CCc2ccccc21", "note": "[Imipramine HCl]", "nuclei number (z-score)": "inactive: 0.0472"}, {"smiles": "C[C@H]1COc2c(N3CCN(C)CC3)c(F)cc3c(=O)c(C(=O)O)cn1c23", "note": "[Levofloxacin hydrate]", "nuclei number (z-score)": "inactive: 0.709"}, {"smiles": "C[C@H]1COc2c(N3CCN(C)CC3)c(F)cc3c(=O)c(C(=O)O)cn1c23", "note": "[Levofloxacin]", "nuclei number (z-score)": "inactive: -0.476"}, {"smiles": "NC(CO)C(=O)NNCc1ccc(O)c(O)c1O", "note": "(stereo not drawn) [Benserazide HCl]", "nuclei number (z-score)": "inactive: 0.79"}, {"smiles": "Fc1ccc([C@@H]2CCNC[C@H]2COc2ccc3c(c2)OCO3)cc1", "note": "[Paroxetine HCl]", "nuclei number (z-score)": "inactive: -0.0927"}, {"smiles": "Nc1nc(O)c2ncn(CCC(CO)CO)c2n1", "note": "[Penciclovir]", "nuclei number (z-score)": "inactive: 0.725"}, {"smiles": "O=c1[nH]cnc2c1ncn2[C@H]1CC[C@@H](CO)O1", "note": "[Didanosine]", "nuclei number (z-score)": "inactive: 0.493"}, {"smiles": "CN(C/C=C/C#CC(C)(C)C)Cc1cccc2ccccc12", "note": "[Terbinafine HCl]", "nuclei number (z-score)": "inactive: -0.127"}, {"smiles": "CN(C/C=C/C#CC(C)(C)C)Cc1cccc2ccccc12", "note": "[Terbinafine]", "nuclei number (z-score)": "inactive: 0.337"}, {"smiles": "CN1CCN(c2ccc(OC(F)(F)F)c(Nc3ncc4c(n3)-c3c(c(C(N)=O)nn3CCO)CC4)c2)CC1", "nuclei number (z-score)": "inactive: 0.422"}, {"smiles": "CC1COc2c(N3CCN(C)CC3)c(F)cc3c(=O)c(C(=O)O)cn1c23", "note": "(stereo not drawn) [Ofloxacin]", "nuclei number (z-score)": "inactive: -0.692"}, {"smiles": "O=C(/C=C/N1C[C@H]2C[C@@H]1CN2c1ccccn1)c1ccccc1O", "nuclei number (z-score)": "inactive: 1.47"}, {"smiles": "CCOC(=O)Nc1ccc(NCc2ccc(F)cc2)nc1N", "note": "[Flupirtine maleate]", "nuclei number (z-score)": "inactive: -0.105"}, {"smiles": "CCOc1cc(C(C)(C)C)ccc1C1=N[C@@](C)(c2ccc(Cl)cc2)[C@@](C)(c2ccc(Cl)cc2)N1C(=O)N1CCN(CCCS(C)(=O)=O)CC1", "nuclei number (z-score)": "active: -2.37"}]}]}
